Test results published in article PMC6919601, “Identification of Plasmodium dipeptidyl aminopeptidase allosteric inhibitors by high throughput screening” (PLoS ONE, 2019).
Among all 110,000 compounds or so, about 230 (0.21%) showed an effect of 50% or more. This is one part of the list.

target: DPAP1 (Plasmodium falciparum, UniProt Q8IIJ9); assay: primary screen, percent inhibition; read by cleavage of a fluorogenic dipeptide substrate; higher = more effect of the substance; set-up: species or system P. falciparum D10 trophozoite lysates; single well
Sequence (Q8IIJ9 whole entry, looked up): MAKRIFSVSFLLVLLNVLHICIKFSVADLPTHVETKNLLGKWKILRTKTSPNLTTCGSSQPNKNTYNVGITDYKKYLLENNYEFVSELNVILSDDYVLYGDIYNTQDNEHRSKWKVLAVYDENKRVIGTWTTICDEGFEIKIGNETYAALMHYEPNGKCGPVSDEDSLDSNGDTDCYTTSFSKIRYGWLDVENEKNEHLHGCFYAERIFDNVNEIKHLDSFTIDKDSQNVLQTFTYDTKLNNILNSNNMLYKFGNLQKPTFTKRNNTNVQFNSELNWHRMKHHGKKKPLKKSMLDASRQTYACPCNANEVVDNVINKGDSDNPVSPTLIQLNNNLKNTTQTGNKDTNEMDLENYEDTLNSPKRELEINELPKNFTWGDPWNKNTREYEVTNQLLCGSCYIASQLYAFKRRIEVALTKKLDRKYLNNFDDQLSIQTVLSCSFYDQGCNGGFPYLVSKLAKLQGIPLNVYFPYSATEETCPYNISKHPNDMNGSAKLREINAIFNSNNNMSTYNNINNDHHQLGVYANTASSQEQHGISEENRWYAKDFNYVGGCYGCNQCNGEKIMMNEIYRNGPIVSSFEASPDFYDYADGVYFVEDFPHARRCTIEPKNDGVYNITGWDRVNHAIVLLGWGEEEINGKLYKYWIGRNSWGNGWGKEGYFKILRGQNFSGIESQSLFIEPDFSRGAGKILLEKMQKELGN
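Also: 30 min substrate incubation versus DMSO and 10 µM JCP410 controls.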

SMILES	% Inhibition @ 10 uM [%]
Cc1ccc(Cn2nc(C)c(NC(=O)c3cc(-c4ccco4)on3)c2C)cc1	2.98
O=S(=O)(c1ccc(-c2csc(Nc3ccc(F)cc3)n2)cc1)N1CCOCC1	6.74
CC1=CC2=NC(=O)/C(=C\c3ccc(O)c(Br)c3)C(=N)N2O1	-3.23
CCN1C(=O)S/C(=C/c2cc(Cl)c(OC)c(OC)c2)C1=O	-5.49
CCC(C(=O)NCc1cn2cccc(C)c2n1)c1ccccc1 (centres unmarked)	-1.72
CC[C@@H](C)[C@H](NC(=O)c1cccc(CNC(=O)OC(C)(C)C)c1)C(=O)N[C@@H](CCc1ccccc1)C(=O)CO	1.61
COc1cc(C(C)=O)ccc1OCC(O)Cn1nc(C)c(Br)c1C (centres unmarked)	0.755
CCCn1c2c(c(O)c(C(=O)Nc3ccc(C)cn3)c1=O)CCCC2	4.35
Cc1ccc(C)c(C(=O)C2=C(O)C(=O)N(CCCn3ccnc3)C2c2cccc(Cl)c2)c1 (centres unmarked)	-0.132
CCn1cc(C(=O)N2CCN(C)CC2)c2cc(OC)c(OC)cc2c1=O	-4.86
CC1(C)CC(C)(c2ccc(O)cc2O)N(c2ccccc2)C(=S)N1 (centres unmarked)	-4.21
CCn1c(C(=O)NC2CCCCC2C)cc2sc(Cl)cc21 (centres unmarked)	-1.37
COc1ccc(C2CC(c3cccs3)=NN2C(=O)CCCC(=O)O)cc1OC (centres unmarked)	4.67
O=C(c1ccccc1Cl)N1CCCCC1	-5.65
CN(C)c1ccc(C2C(C(=O)c3ccc(Br)cc3)=C(O)C(=O)N2c2cccnc2)cc1 (centres unmarked)	-1.77
CN1CCCN(C2CC3CCC2C3)CC1 (centres unmarked)	2.1
CC1=CC(=C2C(=O)NC(=O)NC2=O)C=C(C(F)(F)F)N1CCc1ccccc1	25.7
COCc1cc(C)nc(SCCN(C)C)c1C#N	-1.24
C=CCC1(C#N)C(=S)N=C2CC(C)(C)CC(O)=C2C1c1ccc(Br)cc1 (centres unmarked)	3.01
CC1=C(C)CC(C(=O)Nc2ccc(C(C)C)cc2)C(C(=O)O)C1 (centres unmarked)	5.66
O=C(NCC12CC3CC(CC(C3)C1)C2)c1cnn2c(C(F)(F)F)cc(-c3ccco3)nc12	-0.834
O=C(Cn1c(=O)n(Cc2ccccc2)c(=O)c2c3c(sc21)CCC3)c1ccc(F)cc1	-1.92
Cc1c(Br)c(C(F)(F)F)nn1CC(=O)Nc1sc2c(c1C(N)=O)CCCCC2	-0.171
CC1=C(C(=O)OCCc2ccccc2)C(c2ccsc2)NC(=O)N1C (centres unmarked)	11.9
COc1cc(N2C(=O)c3ccccc3C2=O)c2ncccc2c1OC	3.86
O=C(CCN1CCCCCC1)Nc1ccc(Cl)cc1	-2.37
